Test results from the supplement of paper PMC4967469.
IC50 is the fitted dose that halves viability relative to control wells, and lower means more sensitive; where the fit passes the top or lowest dose, that dose stands as a limit. The AUC spans the tested range (256-fold, ending at the top dose) of the same fit: 1 means no effect, lower means more sensitive. Any top dose called inferred is not printed in the source and was worked back from the curve model. For part of these data: Drugs with an entry number were screened twice under separate entries, and the two screens often disagree.

How the values were obtained:
Test in all cases: Viability of human cancer cell lines after 72 h of drug (GDSC screen)
[1] = compound: Cc1cc(N2CCOCC2)cc2[nH]c(-c3c(NC[C@@H](O)c4cccc(Cl)c4)cc[nH]c3=O)nc12 [BMS-536924]
Experimental: (§1)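 Human cancer cell lines in 384-well plates, medium with 10% serum, drug for 72 h over a 256-fold dose range (nine 2-fold or five 4-fold steps up to the top dose). Adherent lines were fixed and stained with the nucleic acid dye Syto60, suspension lines read with resazurin; signal relative to control wells, capped at 0 and 100%. One two-parameter sigmoid per drug and line, fitted in a mixed model over all curves with the slope shared within a line.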

[2] = compound: CCNc1cc(NC2CCC(O)CC2)nc(Nc2ccc3c(ccn3Cc3ccccc3)c2)n1 [CGP-082996 (CINK4)]; details: top dose 5.12 µM; top dose inferred
Experimental: as §1

[3] = compound: Cc1cccc(-c2[nH]c(C(C)(C)C)nc2-c2ccc3nccnc3c2)n1 [SB-525334]; details: top dose 20 µM; top dose inferred
Experimental: as §1

[4] = compound: O=C(c1cc(Cc2n[nH]c(=O)c3ccccc23)ccc1F)N1CCN(C(=O)C2CC2)CC1 [Olaparib]
Experimental: as §1

[5] = compound: Cc1ccc(-n2nc(C(C)(C)C)cc2NC(=O)Nc2ccc(OCCN3CCOCC3)c3ccccc23)cc1 [BIRB 0796]; details: top dose 10 µM; top dose inferred
Experimental: as §1

[6] = compound: NC(=O)c1ccc(N(C(N)=O)c2c(F)cccc2F)nc1-c1ccc(F)cc1F [VX-702]; details: top dose 2 µM; top dose inferred
Experimental: as §1

[7] = compound: COc1cc(-c2nn([C@H]3CC[C@H](N4CCN(C(C)=O)CC4)CC3)c3ncnc(N)c23)ccc1NC(=O)c1cc2ccccc2n1C [A-770041]; details: top dose 5.12 µM; top dose inferred
Experimental: as §1

[8] = compound: O=C1NC(=O)c2c1c(-c1ccccc1Cl)cc1[nH]c3ccc(O)cc3c21 [Wee1 inhibitor 681640]; details: top dose 2 µM; top dose inferred
Experimental: as §1

[9] = compound: CC(C)=CC[C@@H](O)C1=CC(=O)c2c(O)ccc(O)c2C1=O [Shikonin]; details: top dose 16 µM; top dose inferred
Experimental: as §1

[10] = compound: COc1cc(N2CCN(C)CC2)ccc1Nc1ncc2c(n1)N(C)c1ccccc1C(=O)N2C [XMD8-85]; details: top dose 8 µM; top dose inferred
Experimental: as §1

[11] = compound: CNC(=O)c1ccc(Nc2cc(Nc3ccccc3S(=O)(=O)C(C)C)c3cc[nH]c3n2)nc1 [HG-5-113-01]; details: top dose 10 µM; top dose inferred
Experimental: as §1

[12] = top dose 4 µM, screen: GDSC drug entry 1091, top dose inferred
[13] = top dose 5.12 µM, screen: GDSC drug entry 62
[14] = top dose 5 µM, screen: GDSC drug entry 1017, top dose inferred
[15] = top dose 10 µM, screen: GDSC drug entry 1495

Cell Line	AUC [1, 12]	IC50 [1, 12] [µM]	AUC [1, 13]	IC50 [1, 13] [µM]	AUC [2]	IC50 [2] [µM]	AUC [3]	IC50 [3] [µM]	AUC [4, 14]	IC50 [4, 14] [µM]	AUC [4, 15]	IC50 [4, 15] [µM]	AUC [5]	IC50 [5] [µM]	AUC [6]	IC50 [6] [µM]	AUC [7]	IC50 [7] [µM]	AUC [8]	IC50 [8] [µM]	AUC [9]	IC50 [9] [µM]	AUC [10]	IC50 [10] [µM]	AUC [11]	IC50 [11] [µM]
NCI-SNU-16 (stomach, suspension)	0.747	1.15	0.66	0.838	0.915	> 5.12	0.984	> 20	0.973	> 5	0.989	> 10	0.991	> 10	0.987	> 2	0.96	> 5.12	0.966	> 2	0.991	> 16	0.919	> 8	0.624	1.31
NH-12 (neuroblastoma, adherent)	0.714	1.1	0.954	> 5.12	0.985	> 5.12	0.909	> 20	0.951	> 5			0.982	> 10	0.98	> 2	0.984	> 5.12	0.883	> 2	0.477	0.857	0.871	> 8	0.7	2.47
NMC-G1 (glioma, adherent)	0.968	> 4	0.729	1.69	0.952	> 5.12	0.858	> 20	0.949	> 5	0.907	> 10	0.981	> 10	0.969	> 2	0.561	0.487	0.953	> 2	0.524	1.18	0.904	> 8	0.743	3.72
NOS-1 (osteosarcoma, adherent)	0.794	2.33	0.367	0.126	0.722	1.6	0.543	1.68	0.924	> 5	0.959	> 10	0.936	> 10	0.961	> 2	0.459	0.241	0.896	> 2	0.793	9.25	0.738	2.85	0.806	6.54
OCI-AML3 (acute myeloid leukaemia, suspension)	0.902	3.92	0.981	> 5.12	0.991	> 5.12	0.987	> 20	0.966	> 5	0.98	> 10	0.991	> 10	0.968	> 2	0.991	> 5.12	0.988	> 2	0.301	0.304	0.941	> 8	0.799	4.04
OCI-AML5 (acute myeloid leukaemia, suspension)	0.682	0.768	0.448	0.234	0.949	> 5.12	0.973	> 20	0.961	> 5	0.944	> 10	0.985	> 10	0.988	> 2	0.944	> 5.12	0.963	> 2	0.333	0.36	0.823	4.17	0.65	1.57
OCI-LY-19 (B-cell lymphoma, suspension)	0.966	> 4	0.815	2.55	0.943	> 5.12	0.748	6.02	0.882	4.57	0.927	> 10	0.986	> 10	0.987	> 2	0.966	> 5.12	0.924	> 2	0.257	0.216	0.854	5.56	0.77	3.53
OCUB-M (breast, adherent)	0.972	> 4	0.898	4.91	0.86	3.39	0.746	5.63	0.958	> 5	0.952	> 10	0.989	> 10	0.99	> 2	0.862	3.44	0.978	> 2	0.518	1.11	0.935	> 8	0.683	1.87
ONS-76 (medulloblastoma, adherent)	0.983	> 4	0.927	> 5.12	0.971	> 5.12	0.931	> 20	0.89	> 5	0.903	> 10	0.946	> 10	0.975	> 2	0.953	> 5.12	0.848	1.66	0.311	0.282	0.903	> 8	0.72	2.78
OS-RC-2 (kidney, adherent)	0.883	> 4	0.683	1.32	0.948	> 5.12	0.91	> 20	0.973	> 5	0.948	> 10	0.922	> 10	0.964	> 2	0.589	0.626	0.928	> 2	0.357	0.335	0.863	> 8	0.742	4.32
